# Source: PubChem BioAssay AID588591 (National Center for Advancing Translational Sciences (NCATS), 2011)
# In all, about 390,000 compounds went through this assay and about 4,700 (1.2%) were called active. Inconclusive results (about 4%) are left out. Calls follow the shape of the dose curve; as a rule, active = well fitted inhibition curve with a large enough effect; inconclusive = small, poorly fitted or top-dose-only effect, or another doubt; inactive = no such curve, though single readings can be large or run the other way. Only a part is listed here, and it is no random draw.
# Molecular target: DNA polymerase eta (Homo sapiens) (UniProt Q9Y253)
# Experiment: qHTS for Inhibitors of Polymerase Eta
# Conditions: recombinant Pol eta, fluorescent DNA replication assay; series mostly up to 114 µM; activity change, negative = inhibition: at the top concentration
# Method in brief: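 Pol eta at 10 nM preincubated with compounds 15 min at room temperature; reaction started with fluorescent substrate (50 nM final) and read kinetically at 0 and 10 min.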
# % is scaled to controls: 0 for no effect and ±100 for the full control effect; potency is read from the fitted curve at half-maximal effect.
# Sequence of UniProt Q9Y253 (Q9Y253 whole entry, looked up): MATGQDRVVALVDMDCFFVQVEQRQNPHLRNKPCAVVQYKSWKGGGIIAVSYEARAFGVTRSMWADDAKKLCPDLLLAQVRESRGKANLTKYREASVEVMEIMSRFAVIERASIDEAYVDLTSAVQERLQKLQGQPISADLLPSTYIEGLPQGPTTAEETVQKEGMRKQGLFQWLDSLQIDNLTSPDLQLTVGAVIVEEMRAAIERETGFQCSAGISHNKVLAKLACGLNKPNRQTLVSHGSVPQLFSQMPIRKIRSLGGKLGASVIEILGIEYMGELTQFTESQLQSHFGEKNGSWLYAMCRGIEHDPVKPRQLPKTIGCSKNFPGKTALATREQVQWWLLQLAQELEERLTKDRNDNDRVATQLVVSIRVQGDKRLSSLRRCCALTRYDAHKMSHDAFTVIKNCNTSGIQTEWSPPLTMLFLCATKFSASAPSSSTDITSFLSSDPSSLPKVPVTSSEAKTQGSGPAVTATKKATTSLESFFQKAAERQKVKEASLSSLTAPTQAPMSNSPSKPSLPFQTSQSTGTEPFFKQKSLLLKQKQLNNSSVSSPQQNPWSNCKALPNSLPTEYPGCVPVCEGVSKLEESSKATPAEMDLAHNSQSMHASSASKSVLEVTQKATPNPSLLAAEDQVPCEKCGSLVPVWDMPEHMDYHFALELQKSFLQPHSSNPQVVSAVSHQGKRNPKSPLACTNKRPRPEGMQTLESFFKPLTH
SMILES,Potency,"activity change, negative = inhibition"
CC(=O)Oc1ccc(C(=O)Nc2cccc(C(=O)c3cccc(NC(=O)c4ccc(OC(C)=O)cc4)c3)c2)cc1,active: 3.16 µM,
O=C(CCCN1C(=O)/C(=C\c2cccc(Br)c2)SC1=S)Nc1cccnc1,,inactive: -9.17%
C=CCC[C@@H](Cc1ccc(F)cc1)C(=O)OC[C@@H](Cc1c[nH]c2ccccc12)NC(=O)[C@@H](CC=C)CC(=O)N(CCO)Cc1ccccc1,,inactive: -12.7%
CCN(CC)c1ccc2cc(-c3nc(-c4cc(OC)c(OC)c(OC)c4)no3)c(=O)oc2c1,,inactive: 94.7%
CC(Oc1ccccc1)C(=O)N=Nc1c(O)[nH]c2ccc([N+](=O)[O-])cc12 (stereo not drawn),active: 35.5 µM,
CC(C)OCCCNC(=O)CCCn1c(SCC(N)=O)nc2c(sc3ccccc32)c1=O,,inactive: 19.9%
CCOCCCn1c(=NC(=O)c2cccnc2)c(C(=O)OCC)cc2c(=O)n3ccccc3nc21,,inactive: -16.4%
NC(=O)CSC1=N/C(=C\c2ccco2)C(=O)N1c1ccc(OC(F)F)cc1,,inactive: 31.6%
C[C@H](NC(=O)c1nc[nH]c1C(=O)NCC(=O)OCc1ccccc1)c1ccccc1,,inactive: -7.25%
CCc1ccc(NC(=O)c2c(C(=O)Nc3ccccc3)sc3nc(C)cc(=O)n23)cc1,,inactive: -6.6%
O=C(CSc1nccn1-c1cccc(Cl)c1)NO,,inactive: 41.1%
Cc1cccc(N2C(=O)/C(=C\c3ccc(C(=O)O)cc3)c3ccccc3C2=O)c1,active: 44.7 µM,
CCN(CC)S(=O)(=O)c1ccc2[nH]cc(C(=O)NCCc3ccccc3)c(=O)c2c1,,inactive: 4.45%
O=C1CC(N2CCOCC2)C(=O)N1c1ccc(Cl)cc1 (stereo not drawn),,inactive: 31.4%
COc1cc([C@H]2Oc3cc([C@H]4Oc5cc(O)cc(O)c5C(=O)[C@@H]4O)ccc3O[C@@H]2CO)ccc1O,,inactive: -7.98%
CCc1nn(CC(=O)NCCCc2ccccc2)c(=O)c2cc3c(OC)cccc3n12,,inactive: -8%
O=C(c1cc2c(s1)-c1ccccc1S(=O)(=O)C2)N1CCCC1,,inactive: 31%
C=CC[C@@H](Cc1ccc(F)cc1)C(=O)OC[C@H]1CCCN1C(=O)[C@H](CC=C)CC(=O)N[C@H](CO)Cc1ccccc1,,inactive: -18.1%
CC(=O)Nc1ccc(C=NNc2ccc([N+](=O)[O-])cc2S(=O)(=O)Nc2ccccc2C(=O)O)cc1,active: 50.1 µM,
Cc1c(C(=O)Nc2ccc(S(=O)(=O)Nc3ncccn3)cc2)oc2ccccc12,active: 28.2 µM,
COc1ccc(-c2nn(-c3ccccc3)cc2/C=C(\C#N)C(N)=O)cc1[N+](=O)[O-],,inactive: 8.48%
N#CC(=C(O)COC(=O)CCCNC(=O)c1ccc(Cl)cc1)c1nc2ccccc2[nH]1,,inactive: -16%
O=C(Nc1cccc2c1C(=O)NC2=O)c1ccc(S(=O)(=O)N2CCCC2)cc1,,inactive: 5.16%
CC(C)C(=O)Nc1ccc(C(=O)NNC(=S)NC(=O)c2ccco2)cc1,,inactive: 26.6%

SMILES,Potency,"activity change, negative = inhibition"
O=C(Nc1ccc(Cl)cc1Cl)c1cccc(N2C(=O)C=CC2=O)c1,,inactive: 40.6%
CSc1ccccc1NC(=O)COC(=O)c1c[nH]c(=O)[nH]c1=O,,inactive: 40.8%
Cc1cc(C)n2nc(CC(=O)NNC(=O)c3ccc(N(C)C)cc3)nc2n1,,inactive: 17.1%
O=C(NCCN1C(=O)S/C(=C\c2cccnc2)C1=O)c1ccc(S(=O)(=O)N2CCCC2)cc1,,inactive: -14.2%
Cc1ccc(C)c(NC(=O)Cn2nnc(C(=O)Nc3c(C)cccc3C)c2N)c1,,inactive: -3.91%
O=C(/C=C/c1ccc(-c2ccccc2)o1)c1ccccc1,,inactive: -25.1%
CCN(CC)c1ccc(/C=C(\C#N)C(N)=S)cc1,,inactive: 39.5%
S=c1[nH]nc(-c2cc(-c3ccccc3)n[nH]2)n1/N=C/C(Br)=C/c1ccccc1,active: 50.1 µM,
O=C(N/N=C/c1cc([N+](=O)[O-])ccc1O)c1c[nH]c2ccccc12,,inactive: 31.4%
C=CC[C@@H](CC(=O)N(CCO)Cc1ccccc1)C(=O)N[C@H](C)COC(=O)[C@@H](CC=C)Cc1ccc(F)cc1,,inactive: -13.1%
S=C(Nc1ccc2c(c1)OCO2)Nc1ccccc1Cl,,inactive: 31.5%
O=C(NCc1ccco1)C1CCCN(S(=O)(=O)c2cccc3nsnc23)C1 (stereo not drawn),,inactive: -7.7%
CCC(=O)Nc1ccc(-n2nnnc2SCC(=O)NNC(=O)c2ccco2)cc1,,inactive: 38.9%
c1ccc(-c2nnc(-c3ccccn3)nn2)nc1,,inactive: 35%
O=C1NC(=Nc2ccccc2)S/C1=C\c1cccs1,,inactive: 52.2%
O=C(c1cnn2c(-c3ccccc3)cc(-c3ccccc3)nc12)N1CCN(Cc2ccccc2)CC1,,inactive: 44.1%
COc1ccc(/C=C/C(=O)NCC(=O)N=Nc2c(O)[nH]c3ccc([N+](=O)[O-])cc23)cc1,active: 35.5 µM,
C=CC[C@H](CC(=O)N(CCO)Cc1ccccc1)C(=O)N[C@@H](COC(=O)[C@@H](CC=C)CC(=O)OC(C)(C)C)Cc1c[nH]c2ccccc12,,inactive: -25.9%
O=C(CCN1C(=O)/C(=C\c2cccs2)SC1=S)NC1=NCCS1,,inactive: -18.3%
CCCCN(C(=O)c1ccc(-c2ccc([N+](=O)[O-])cc2)o1)c1c(N)n(CC(C)C)c(=O)[nH]c1=O,,inactive: 16.3%
CCC1CN(C(=O)NCc2ccc(F)cc2)c2cc(Cl)ccc2O1 (stereo not drawn),,inactive: -11.3%
COc1ccc(N=C2NC(=O)S/C2=C\c2ccc(N(C)C)cc2)cc1,,inactive: 20.9%
CC1=NN(c2ccccc2)C(=O)C1/C=C1\NC(=S)NC1=O (stereo not drawn),active: 3.16 µM,
CCOCCCNC(=O)c1cn(CC(C)C)c(=O)c2c1c1ccccc1n2C,,inactive: -3.8%

SMILES,Potency,"activity change, negative = inhibition"
CC(/C=N/n1c(-c2ccc(Cl)cc2)n[nH]c1=S)=C\c1ccco1,active: 17.8 µM,
COc1ccccc1CCNC(=O)c1cc(-c2ccncc2)nc2ccc(Br)cc12,active: 44.7 µM,
CC1(N(O)C=C2C=CC(=O)C=C2)CCCCC1=O (stereo not drawn),,inactive: 19.3%
O=C1/C(=C\c2cccnc2)Sc2ccccc21,,inactive: -10.7%
C=CC[C@@H](Cc1ccc(F)cc1)C(=O)OC[C@@H]1CCCN1C(=O)[C@@H](CC=C)CC(=O)N[C@H](CO)Cc1ccccc1,,inactive: -26.5%
O=C(NCc1ccccc1)C1=C[C@@H](C2CCCCC2)C[C@@H](OCc2ccc(CO)cc2)O1,,inactive: -17.3%
COC(=O)c1ccc(C(=O)OC)c(NC(=S)N2CCOCC2)c1,,inactive: -5.23%
C=CC[C@H](CC(=O)OC(C)(C)C)C(=O)OC[C@H]1CCCN1C(=O)[C@@H](CC=C)CC(=O)N(CCO)Cc1ccccc1,,inactive: -17.7%
O=C(COc1cc2oc(=O)cc(-c3ccccc3)c2cc1Cl)NC(Cc1c[nH]c2ccc(O)cc12)C(=O)O (stereo not drawn),active: 50.1 µM,
COc1ccc(OC)c(CNC(=O)CCC(=O)N2Cc3ccccc3Oc3ncccc32)c1,,inactive: 4.32%
O=C1CCCC(O)=C1Sc1cc(Cl)c(Cl)cc1Cl,,inactive: 30.6%
CN1C(=O)/C(=C/c2cc(N=Nc3ccccc3)ccc2O)SC1=S,,inactive: -8.92%
Cc1oc(-c2ccc(C(=O)Nc3ccc(F)cc3F)cc2)nc1COc1ccccc1,,inactive: 19.9%
Cc1cccc(C)c1OCC(=O)N/N=C/C=C/c1ccco1,,inactive: 16.6%
C/C(N)=C(/C#N)C(=O)COC(=O)CCSc1ccccc1,,inactive: 5.99%
Cn1c(=O)n(C)c2cc([N+](=O)[O-])c(N3CCN(C(=O)c4ccc(F)cc4)CC3)cc21,,inactive: -11.2%
Cc1nnc(SCC(=O)Nc2sccc2C#N)n1Cc1ccccc1,,inactive: -62.7%
O=C(NCc1ccccc1)c1ccc(S(=O)(=O)Nc2cccc(C(F)(F)F)c2)cc1,,inactive: 33.6%
O=C1c2cccc3cccc(c23)C(=O)N1c1ccncc1,,inactive: 8.96%
COc1ccc(C(=O)N/C(=C\c2cccs2)c2nc3ccccc3[nH]2)cc1OC,,inactive: -11.9%
COc1ccccc1OCCOc1ccc(/C=C2\C(=N)N3N=C(S(C)(=O)=O)SC3=NC2=O)cc1,active: 22.4 µM,
CCn1c2c(c(=O)n3ncc(C(=O)N4CCN(c5ccc(C(C)=O)cc5)CC4)c13)CN(Cc1ccc(OC)cc1)CC2,active: 89.1 µM,
O=C(O)c1ccc2c(c1)C(=O)N(c1ccc(/C=C/C(=O)c3ccccc3)cc1)C2=O,active: 22.4 µM,
O=C1C=C(O)c2[nH]c(=O)ccc2C1=O,active: 17.8 µM,

SMILES,Potency,"activity change, negative = inhibition"
CCOC(=O)C(=CNc1cc(C)nn1-c1ccc(Cl)cc1)C(=O)OCC,,inactive: 2.37%
O=C(CCc1ccc(S(=O)(=O)N2CCOCC2)cc1)Nc1nc(COc2ccccc2)cs1,,inactive: -14%
CC1CCC/C(=N\NS(=O)(=O)c2ccccc2)C1 (stereo not drawn),,inactive: 34.2%
Fc1ccc(CSc2nnc3ccc(-c4ccncc4)nn23)cc1,,inactive: 35.6%
O=C(O)c1ccc(-n2cccc2/C=C2/NC(=O)N(c3ccccc3)C2=O)cc1,active: 2.82 µM,
CCOc1ccc2c(c1)C(=NNC(=O)c1ccccn1)c1cc(OCC)ccc1-2,,inactive: 30.2%
CCCCC(C(=O)O)C(C)CC(=O)Nc1nncs1 (stereo not drawn),,inactive: 35.8%
O=C(CCn1c(=O)c2cccn2c2ccccc21)Nc1ccc(F)cc1,,inactive: -4.35%
CC(=O)C[C@H](O)CC(=O)[C@@H]1OC(=O)[C@@H](C)C/C=C\Cc2ccccc21,,inactive: -13.4%
CCOc1ccc(NC(=O)C(CC)n2nc(C)c3c(C)n(-c4ccccc4)nc3c2=O)cc1 (stereo not drawn),,inactive: -6.48%
COc1ccc([C@H]2C[C@@H](O)[C@H](n3cc(-c4ccc(F)cc4)nn3)CN2CC2CCCCC2)cc1,,inactive: -9.09%
CCN(c1ccccc1)S(=O)(=O)c1nnc(NC(=O)c2ccccc2OC)s1,,inactive: 13%
Oc1cc(O)c2c(c1)OC(c1ccc(O)c(O)c1)C(O)C2 (stereo not drawn),,inactive: -2.93%
CCOC(=O)CCn1nnc(N)n1,,inactive: 126%
O=C1C=CC(n2cc(F)c(=O)[nH]c2=O)O1 (stereo not drawn),active: 20 µM,
Cc1cc2c(NS(=O)(=O)c3ccc(F)cc3)cccc2nn1,,inactive: 27.4%
COc1ccc2c(c1)cc(C(=O)N/N=C/c1c(O)c(C(=O)O)cc3ccccc13)n2C,active: 39.8 µM,
CC(C)(CS(=O)(=O)[O-])NC(=O)CC[N+](C)(C)CCO,active: 0.794 µM,
CN(C(=O)CSc1nnc(-c2ccncc2)n1-c1ccccc1)C1CCS(=O)(=O)C1 (stereo not drawn),,inactive: 31%
Cc1ccc(S(=O)(=O)Nc2cccc3ncccc23)cc1,,inactive: 39.5%
CC(=O)C1C(c2cccc(F)c2)c2c(n[nH]c2C)CC1(C)O (stereo not drawn),,inactive: 32.8%
